Results on 172 sequences are retold here after PMC4242493.

The other results are listed elsewhere or left out. The list includes weakly bound sequences.

In the assay the target is MaxL homodimer (UniProt P61244). The experiment in a line: universal protein-binding microarray (PBM). Particulars: PBS-based mixture, 10 nM His-tagged protein dimer, 2% milk, 200 ng/uL BSA, 50 ng/uL salmon testes DNA, 0.02% TX-100; detection with Alexa 488 anti-His …; high values mean tight binding; most listed sequences are background and not binding sites; double strand, one strand shown.
Sequence of UniProt P61244 (P61244 whole entry): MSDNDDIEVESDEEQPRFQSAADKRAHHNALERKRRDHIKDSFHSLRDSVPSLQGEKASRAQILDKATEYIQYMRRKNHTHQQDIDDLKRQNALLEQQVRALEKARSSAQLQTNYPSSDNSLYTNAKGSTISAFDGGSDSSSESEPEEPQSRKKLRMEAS
For AAGCGTAC, the binding signal (normalized occupancy) turned out to be 0.0746.
With GAGAGCCA the figure was 0.074.
Consider AGCAAACT, for which the binding signal (normalized occupancy) turned out to be 0.0759.
Turning to ACTCTAGG, the binding signal (normalized occupancy) was 0.071.
Turning to AATAGTGT, the binding signal (normalized occupancy) worked out at 0.0804.
With CAGCGATG the figure was 0.0775.
As for CACATGCC, the figure is 0.134.
With AGGGCGTC the figure was 0.0752; with CTCTCTAA, 0.0677; with GGATGTAA, 0.0766.
Turning to AACTTGTC, the binding signal (normalized occupancy) was found to be 0.0708.
As for ATGTTTTG, the figure is 0.0773.
With ACCGCGGT the figure was 0.0722; with GGTGTCTA, 0.0774.
As for GGGCTTAC, the figure is 0.0714; as for GCGCATTA, 0.0762; as for AAGCTACA, 0.0711.
In the case of CCAATCGC, the binding signal (normalized occupancy) came to 0.0747.
On to ATTCTGCC, for which the binding signal (normalized occupancy) is 0.0687.
With CGTGGACC the figure was 0.0747; with CCGGACCG, 0.0658.
With ATCTCGAC the figure was 0.0735; with CGACTACA, 0.0812; with AACCCGCC, 0.075.
CGCCCGCC: the binding signal (normalized occupancy) turned out to be 0.0709.
As for GCAAAAGA, the binding signal (normalized occupancy) came to 0.0674.
With ATATGGCA the figure was 0.098; with AAGCTGCC, 0.0711; with GACATGTC, 0.0872.
On to ACGGGAAG, for which the binding signal (normalized occupancy) came out at 0.0801.
With CATCCAGC the figure was 0.0758.
On to CGTATTCA, for which the binding signal (normalized occupancy) was 0.0748.
For CAGACGGG, the binding signal (normalized occupancy) turned out to be 0.0705.
For the sequence CACCTAAC, the binding signal (normalized occupancy) was determined as 0.0738.
With TAAGTATA the figure was 0.0772; with ACGTATGC, 0.0778; with ACAGCCGC, 0.0693.
As for CTGGCTGA, the figure is 0.0689; as for ACGAGCAA, 0.0809; as for AAGAATTC, 0.0705.
As for AATGCGGA, the figure is 0.0802.
On to CTTGGATC, for which the binding signal (normalized occupancy) is 0.0746.
Regarding CCCCTGAA, the binding signal (normalized occupancy) is 0.0781.
Regarding CTGTTAAG, the binding signal (normalized occupancy) worked out at 0.0755.
With ATAGTTTC, the binding signal (normalized occupancy) was 0.0746.
In the case of AACTCCAG, the binding signal (normalized occupancy) worked out at 0.0726.
GCCCTGTA: the binding signal (normalized occupancy) worked out at 0.0736.
In the case of CCTACTCA, the binding signal (normalized occupancy) was 0.0764.
As for AATTCTGA, the binding signal (normalized occupancy) amounted to 0.0736.
With CACGTCTC the figure was 0.0782; with CTTCGTAA, 0.0744.
As for GCTTTACA, the figure is 0.0705; as for AGGACGAA, 0.0655; as for CACAACCA, 0.0825.
As to CCCAATCG, the binding signal (normalized occupancy) amounted to 0.0745.
Take AATTAGGT: the binding signal (normalized occupancy) came to 0.0727.
For CTTACGCC, the binding signal (normalized occupancy) was 0.0728.
With AGCGACTA, the binding signal (normalized occupancy) amounted to 0.0707.
With GGATAGAC the figure was 0.0769.
With CGACTAAA the figure was 0.0736; with GAGAGACA, 0.0729; with GGGAGTAA, 0.0769.
For CAAGCGCA, the binding signal (normalized occupancy) is 0.0772.
With ATCGTCGC, the binding signal (normalized occupancy) was 0.0734.
As for AAGACCTT, the figure is 0.0739; as for TCTGGACA, 0.0737.
As for ATTATTGG, the figure is 0.0718; as for ATCAGAGG, 0.0694.
As to CTAACGGC, the binding signal (normalized occupancy) was determined as 0.07.
As to TCCATGGA, the binding signal (normalized occupancy) came out at 0.0757.
With AGCCGCAA the figure was 0.0645.
As for TCTTTCCA, the binding signal (normalized occupancy) came out at 0.0762.
As for CTCCACCA, the figure is 0.075.
In the case of CTCGGCTC, the binding signal (normalized occupancy) came to 0.0643.
As for GACGGAAA, the figure is 0.0737.
With AGTCGTTG the figure was 0.0759; with AATCACCT, 0.0853.
With GAACACGC the figure was 0.108; with TCACGCCA, 0.0851.
In the case of AATGTTCA, the binding signal (normalized occupancy) was 0.0776.
As for AGTTAAGG, the binding signal (normalized occupancy) was found to be 0.0713.
With GCTCCCAA the figure was 0.0669; with GAGAGGGA, 0.0743.
Turning to CCACTGGC, the binding signal (normalized occupancy) is 0.0688.
Regarding CAAGACAA, the binding signal (normalized occupancy) stood at 0.0766.
As for TAGAATCA, the figure is 0.0767; as for GCGCTTAA, 0.0733; as for CACAGGTG, 0.0857.
In the case of CTGGGATC, the binding signal (normalized occupancy) was found to be 0.0733.
With ACTCCAAG, the binding signal (normalized occupancy) stood at 0.0736.
As to TAGGCATA, the binding signal (normalized occupancy) turned out to be 0.0735.
As for GCAGGGGA, the figure is 0.0757; as for GTTCACCA, 0.0729.
For GGAATGAA, the binding signal (normalized occupancy) amounted to 0.0745.
As for GGAGTTCA, the figure is 0.075; as for TCTCAGCA, 0.076.
With AACCGCGC the figure was 0.0744; with TCCGCTCA, 0.0723; with AATTCGCT, 0.0735.
In the case of ATCCCCAG, the binding signal (normalized occupancy) was 0.0781.
As for AGAACACA, the figure is 0.0789.
As for CTTTGCGC, the figure is 0.0698; as for CCACCGCC, 0.075; as for ACCGGAGC, 0.0658.
With GATACTGA the figure was 0.0736.
For CGCGACGA, the binding signal (normalized occupancy) amounted to 0.0728.
With CTAACATA, the binding signal (normalized occupancy) turned out to be 0.0839.
On to AAAAGTTC, for which the binding signal (normalized occupancy) worked out at 0.076.
As for GCGGACGA, the figure is 0.0691; as for ACTTTATA, 0.0812; as for CCTCTGAA, 0.0722.
TAAGCACA: the binding signal (normalized occupancy) amounted to 0.0818.
With CCGGCCCG the figure was 0.0669; with CATAACTA, 0.0819; with GCCCATCC, 0.0737.
Consider ACTCTCCC, for which the binding signal (normalized occupancy) stood at 0.0751.
As for GTACCATA, the figure is 0.0827.
As for CTATGTTC, the figure is 0.0761; as for GATATGTA, 0.089.
With CATGACAC, the binding signal (normalized occupancy) was found to be 0.0945.
For AACTAATT, the binding signal (normalized occupancy) stood at 0.0744.
As for GCGACTGA, the figure is 0.0657.
Take ACCCAGTA: the binding signal (normalized occupancy) is 0.0749.
Take GACAACGC: the binding signal (normalized occupancy) is 0.0763.
As for GCGTTTTA, the binding signal (normalized occupancy) amounted to 0.0724.
With CAGCGTGA the figure was 0.104.
As to CCTGCATC, the binding signal (normalized occupancy) is 0.0807.
For ACAGCACT, the binding signal (normalized occupancy) came out at 0.0758.
As for CGGGATAG, the figure is 0.0804; as for CGCACACG, 0.0921; as for CTCAACGA, 0.0706.
As for CAATACCC, the figure is 0.0831; as for CGTCAAGA, 0.0686.
With ACGCTAAA the figure was 0.0744; with CTATCTTA, 0.0742; with GAGGAACA, 0.0707.
Regarding CGAGGACC, the binding signal (normalized occupancy) was found to be 0.08.
Take CATTCTCA: the binding signal (normalized occupancy) was determined as 0.0837.
In the case of CATATACG, the binding signal (normalized occupancy) was 0.0868.
Regarding AAGACAGA, the binding signal (normalized occupancy) is 0.0712.
With AGATCCTG the figure was 0.0678; with TGGGAAAA, 0.0766.
As for CCCGACAG, the figure is 0.0712.
With ACTCCTAT the figure was 0.0765; with CCGACTCG, 0.0708.
With CCCTAAAA, the binding signal (normalized occupancy) worked out at 0.076.
Take CGCAAGCA: the binding signal (normalized occupancy) was 0.0691.
As for CAATCGTG, the figure is 0.0825.
With ACCGACGC the figure was 0.0744; with GATAGCCC, 0.0734.
With CAGAAACG the figure was 0.069.
For the sequence ATAGACGG, the binding signal (normalized occupancy) came out at 0.0755.
As for GAAGCTTA, the binding signal (normalized occupancy) came to 0.0739.
With CGGGTAAA the figure was 0.0764; with AAACTGCC, 0.0756.
With TCCTAGCA the figure was 0.0789.
With GAACTAAA the figure was 0.071; with CGAGACCG, 0.0657.
On to AACGCGCG, for which the binding signal (normalized occupancy) came out at 0.0803.
With CTCATCAG the figure was 0.0756; with AACAAACT, 0.0702.
Take GTGAGTGA: the binding signal (normalized occupancy) was 0.0775.
With CATTCAAG, the binding signal (normalized occupancy) is 0.0736.
As for AAACGATA, the figure is 0.0767.
As for GCGGGCAA, the figure is 0.067; as for AAAAGTGG, 0.0712.
With CACCACTA the figure was 0.0802.
As to GGTAGACA, the binding signal (normalized occupancy) stood at 0.0778.
As for AGATAGCG, the figure is 0.0754.
As to ACGAGTGA, the binding signal (normalized occupancy) is 0.0751.
As for CGGGGCAA, the binding signal (normalized occupancy) was determined as 0.0751.
On to AACCCAGC, for which the binding signal (normalized occupancy) was determined as 0.0697.
